Data on 90 compounds can be found in PMC4336329 (PLoS ONE, 2015).

Molecules are shown by their SMILES. About 14,000 (4.5%) of roughly 310,000 compounds showed an effect of 50% or more. The effect is printed as a negative number. Some of the results follow.
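Note: peak tail current of the secondary pulse compared with the same well before compound.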

This assay deals with human ether-à-go-go-related gene (hERG) potassium channel (human, UniProt Q12809). As to the kind of experiment: primary screen, population patch clamp on CHO cells stably expressing hERG.
human ether-à-go-go-related gene (hERG) potassium channel, sequence (Q12809 whole entry, looked up): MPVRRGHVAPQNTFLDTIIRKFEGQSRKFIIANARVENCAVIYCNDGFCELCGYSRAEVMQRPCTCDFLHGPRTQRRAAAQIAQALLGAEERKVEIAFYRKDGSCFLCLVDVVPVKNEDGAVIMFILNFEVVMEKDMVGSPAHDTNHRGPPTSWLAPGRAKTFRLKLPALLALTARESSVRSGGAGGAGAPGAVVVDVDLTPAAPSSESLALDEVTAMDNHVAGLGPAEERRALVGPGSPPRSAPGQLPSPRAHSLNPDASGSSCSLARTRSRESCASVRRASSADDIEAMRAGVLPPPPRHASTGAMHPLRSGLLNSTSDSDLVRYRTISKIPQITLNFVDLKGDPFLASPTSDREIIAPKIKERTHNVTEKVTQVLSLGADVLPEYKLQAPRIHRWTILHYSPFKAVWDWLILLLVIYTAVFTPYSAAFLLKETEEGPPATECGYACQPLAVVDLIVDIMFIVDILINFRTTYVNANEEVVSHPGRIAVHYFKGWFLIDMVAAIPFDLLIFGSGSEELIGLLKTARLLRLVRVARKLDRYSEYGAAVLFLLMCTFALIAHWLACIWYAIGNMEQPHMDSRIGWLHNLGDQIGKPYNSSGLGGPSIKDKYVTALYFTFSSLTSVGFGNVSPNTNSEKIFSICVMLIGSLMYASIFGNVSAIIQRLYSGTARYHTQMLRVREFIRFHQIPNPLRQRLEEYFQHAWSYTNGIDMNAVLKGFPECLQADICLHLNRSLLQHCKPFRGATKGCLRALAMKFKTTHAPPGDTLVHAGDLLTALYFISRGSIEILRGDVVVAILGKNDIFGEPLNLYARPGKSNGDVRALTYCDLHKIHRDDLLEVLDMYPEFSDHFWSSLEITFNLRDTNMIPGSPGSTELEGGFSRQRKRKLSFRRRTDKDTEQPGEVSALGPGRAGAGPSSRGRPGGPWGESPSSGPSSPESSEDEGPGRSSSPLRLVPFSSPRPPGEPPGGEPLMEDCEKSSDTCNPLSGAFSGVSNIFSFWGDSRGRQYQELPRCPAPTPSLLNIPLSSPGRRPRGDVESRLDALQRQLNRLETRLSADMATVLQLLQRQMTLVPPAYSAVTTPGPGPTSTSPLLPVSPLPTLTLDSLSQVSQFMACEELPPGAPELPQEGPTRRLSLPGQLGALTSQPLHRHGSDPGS
Take `Cc1ccc(S(=O)(=O)N2C=CC(C(F)(F)F)=NCC2)cc1`: the “hERG current change (%, negative = inhibition) at 10uM” value was found to be 6.08%.
With `Cc1ccc(CC(=O)O/N=C(\N)Cc2ccc([N+](=O)[O-])cc2)cc1` the figure was 0.827%.
Next, `COc1ccc(NC(=O)[C@@H]2CC=C[C@@H]3CCN(C4CCCCC4)C(=O)[C@@H]32)cc1`: 3.17%.
As for `CCOC(=O)C1CCCN(C2=NC(=O)/C(=C/c3ccc(OC)c(OC)c3)S2)C1` (stereo not drawn), the “hERG current change (%, negative = inhibition) at 10uM” value is -22.8%.
With `COc1ccc(/C=C(\NC(=O)c2ccccc2)C(=O)N2CCCCC2)cc1OC` the figure was 4.02%; with `O=C(CSc1nc2ccccc2o1)NCCOc1ccccc1`, -2.26%; with `Cc1cccc(NC(=O)CSCC(=O)Nc2ccccc2N2CCCC2)c1`, -90%.
Take `COc1ccc(C2OC34CCCCC3C(C#N)(C#N)C2(C#N)C(=N)O4)cc1` (stereo not drawn): the “hERG current change (%, negative = inhibition) at 10uM” value is given as -0.964%.
In the case of `Cc1ccc(CS(=O)Cc2ccc(C(=O)NCc3ccc4c(c3)OCO4)o2)cc1` (stereo not drawn), the “hERG current change (%, negative = inhibition) at 10uM” value is on record as -28.9%.
With `Cc1nnc(SCCCn2c(N3CCN(c4ccccc4)CC3)nc3c2c(=O)[nH]c(=O)n3C)s1` the figure was -28.5%; with `COc1ccc(N2C(=O)CC(NNc3nc4ccccc4s3)C2=O)cc1` (stereo not drawn), 12%.
With `CCC(Cc1ccccc1)NC(=O)Cn1cccc1C(=O)c1ccccc1` (stereo not drawn) the figure was 6.83%; with `CCCCCCC(Cl)(Cn1ccnc1)c1ccccc1.O=[N+]([O-])O` (stereo not drawn), -18.3%; with `Cc1ccc2c(c1)NC(=O)C(CC(=O)N(C)Cc1ccccc1)O2` (stereo not drawn), -5.2%.
Next, `N#C/C(=C(/O)c1cccs1)c1nc2ccccc2[nH]1`: 12%; `COc1ccc(NC(=O)/C(C#N)=C\c2ccc(N3CCOCC3)o2)cc1`: 1.89%.
Regarding `O=C(NNC(=O)c1cc2ccccc2cc1O)Nc1ccc(Br)cc1`, the “hERG current change (%, negative = inhibition) at 10uM” value was found to be 7.16%.
With `CCCCCCNc1cc2n(c(=O)n1)CCc1cc(OC)c(OC)cc1-2` the figure was -46.7%.
For `CC(C)CN(C)Cc1c(C(=O)N2CCc3ccccc3C2)nc2ccc(Cl)cn12`, the “hERG current change (%, negative = inhibition) at 10uM” value is recorded as -53.2%.
Next, `COc1ccccc1CN(CC(=O)NCc1ccc(F)cc1)C(=O)c1csnn1`: -35.3%; `CNS(=O)(=O)c1cccc(C(=O)OCC(=O)C23CC4CC(CC(C4)C2)C3)c1`: -5.22%; `CC(C)(C)N=Cc1c(O)ccc2oc3c(c12)CCCC3`: 30.8%.
Next, `CN(c1ccccc1)c1nc(N)c([N+](=O)[O-])c(NC2CCCCC2)n1`: 13.4%; `CCOC(=O)c1cc2c(N)c(C(=O)c3cc(C#N)c(SC)nc3C)sc2nc1C`: -0.985%; `CCc1ccc(OCCOC(=O)Nc2ccccc2)cc1`: 14.6%.
With `O=C(Cn1cnc2ccccc2c1=O)Nc1cccc(-c2nnc3n2CCCCC3)c1` the figure was 0.387%; with `Clc1ccccc1Cn1nnc2c(N3CCCC3)ncnc21`, -12.5%.
Regarding `CCC(=O)N(CCc1ccccc1C)Cc1cc2cc3c(cc2[nH]c1=O)OCO3`, the “hERG current change (%, negative = inhibition) at 10uM” value is given as -3.05%.
Turning to `O=C(O)CCN1CCN(S(=O)(=O)c2ccc3ccccc3c2)CC1`, the “hERG current change (%, negative = inhibition) at 10uM” value was 14.1%.
As to `CC(=O)NC1(C(F)(F)F)N=C(c2ccccc2)NC1=O` (stereo not drawn), the “hERG current change (%, negative = inhibition) at 10uM” value was 0.264%.
With `COc1ccc(/C=C2/C(=O)N(c3nc4ccccc4s3)N=C2CSc2ccc(Cl)cc2)cc1` the figure was 1.45%.
For the compound `COc1cccc(NC(=O)CS(=O)(=O)c2cn(CC(=O)N3CCOCC3)c3ccccc23)c1`, the “hERG current change (%, negative = inhibition) at 10uM” value worked out at 6.05%.
As to `Cc1ccc(Nc2nc3ccccc3c(=O)s2)cc1C`, the “hERG current change (%, negative = inhibition) at 10uM” value amounted to 6.94%.
In the case of `O=C(N(c1ccccc1)c1ccccc1)n1ccnc1`, the “hERG current change (%, negative = inhibition) at 10uM” value is -10.5%.
Regarding `CCc1cccc(C)c1NC(=O)Nc1c(Br)cnn1C`, the “hERG current change (%, negative = inhibition) at 10uM” value stood at 25.7%.
On to `Cc1ccc2c(c1)sc(-c1ccc(N(C)C)cc1)[n+]2C.[I-]`, for which the “hERG current change (%, negative = inhibition) at 10uM” value is -60%.
For the compound `c1ccc(C(c2ccccc2)c2noc(CN3CCN(C4CCCC4)CC3)n2)cc1`, the “hERG current change (%, negative = inhibition) at 10uM” value is on record as -70.1%.
With `CC(=O)NC(=S)Nc1cc(C(F)(F)F)ccc1N1CCOCC1` the figure was -30.7%.
With `CP(C)(=O)CCC(=O)O` the figure was 9.22%.
With `Cc1ccc(Sc2cc(C)nc(-c3ccccn3)n2)cc1` the figure was -21.2%.
Regarding `Cc1nn(-c2ccccc2)c(Cl)c1C(=O)OC(C)C(=O)Nc1ccc2c(c1)OCO2` (stereo not drawn), the “hERG current change (%, negative = inhibition) at 10uM” value stood at 8.26%.
Consider `COc1ccc(C)cc1S(=O)(=O)N(C)CC(=O)Nc1ccccc1`, for which the “hERG current change (%, negative = inhibition) at 10uM” value is -4.57%.
On to `CCNc1ccc(Br)cc(C(=O)/C=C/c2ccccc2Cl)c1=O`, for which the “hERG current change (%, negative = inhibition) at 10uM” value was -12%.
Next, `O=C(CSc1ncccc1-c1nc2ccccc2[nH]1)NC1CC1`: -2.91%; `O=C(O)CNC(=O)c1ccc(NC(=O)/C(=C/c2ccccc2)NC(=O)c2ccccc2Br)cc1`: 19.3%.
With `O=C(CSc1nnc(C2CC2)n1CC1CCCO1)Nc1ccccc1Cl` (stereo not drawn) the figure was 7.68%; with `CCc1nnc(NC(=O)c2cccc(S(=O)(=O)N3CCCCC3)c2)s1`, 25.2%.
Next, `O=c1[nH]c2cc3c(cc2cc1CN(CCN1CCOCC1)C(=S)NCC1CCCO1)OCO3` (stereo not drawn): -15.2%; `CC1(C)C2([N+](=O)[O-])CN3CC1([N+](=O)[O-])CN(C2)C3c1ccccc1` (stereo not drawn): 28.7%.
On to `CC(=O)c1cn(CC(=O)Nc2cccc(C)c2C)c2ccccc12`, for which the “hERG current change (%, negative = inhibition) at 10uM” value was found to be 20.6%.
Next, `O=C(NCC1CCCO1)C(=O)NCC1CCCN1S(=O)(=O)c1ccccc1` (stereo not drawn): 14.2%.
With `CCOc1ccc(CC(=O)NNC(=S)NC2CCCCC2)cc1OCC` the figure was 0.59%; with `CN1CCN(Cc2nnc3n2-c2ccc(Cl)cc2C(c2ccccc2)=NC3)CC1.O=CO`, -64.7%.
With `CC(C)c1ccc(NC(=O)CCc2ccccc2)cc1` the figure was 11.8%; with `O=C(NC1CCOC1)c1ccc(OC2CCN(CCc3ccccc3)CC2)cc1` (stereo not drawn), -39.8%.
As for `CCCCCCCn1ccc(=N)cc1.I`, the “hERG current change (%, negative = inhibition) at 10uM” value was -14.7%.
With `Nc1ccc(SC(F)(F)F)cc1` the figure was 38.3%.
Take `Cc1ccc(S(=O)(=O)N/N=C/c2cc(Br)ccc2O)cc1`: the “hERG current change (%, negative = inhibition) at 10uM” value amounted to 5.71%.
As to `O=C(O)c1ccc(S(=O)(=O)NCC2CCCCC2)cc1`, the “hERG current change (%, negative = inhibition) at 10uM” value is 13.2%.
As for `OC(C#CCN1CCCCC1)c1ccccc1` (stereo not drawn), the “hERG current change (%, negative = inhibition) at 10uM” value is -4.92%.
Next, `COc1ccc(CN2CCCC(C(=O)N3CCc4ccccc4C3)C2)cc1OC` (stereo not drawn): -62%; `COc1cc(OC)c(OC)cc1CNCCNC(=O)c1nonc1N.Cl`: -0.502%; `O=C(NCc1ccco1)c1ccc2c(=O)n(-c3ccccc3)c(=S)[nH]c2c1`: 7.36%.
`Cc1ccc(C)c(OCc2nnc(SCC(=O)NC(=O)NCc3ccco3)o2)c1`: the “hERG current change (%, negative = inhibition) at 10uM” value came to 16.7%.
With `Fc1ccc(/C=N/NC(=S)NCCc2ccccc2)cc1F` the figure was 17.2%; with `Cc1ccc(S(=O)(=O)N2CCN(c3ncnc4sccc34)CC2)cc1`, -35.7%.
Next, `Cc1cc(C)cc(NC(=O)COC(=O)CC2CCCC2)c1`: -0.633%.
In the case of `O=c1oc2cc(O)ccc2cc1-c1ccc(F)cc1`, the “hERG current change (%, negative = inhibition) at 10uM” value came to 2.96%.
Next, `COc1cccc(C(=O)C2CCCN(Cc3ccc(OC)c(Cn4cncn4)c3)C2)c1` (stereo not drawn): -58.6%; `COc1ccc(N(CC(=O)N2CCN(c3cccc(Cl)c3)CC2)S(=O)(=O)c2c(C)noc2C)cc1`: 16.7%; `CNc1cc(CSc2ccc(Cl)cc2)nc(C)n1`: 11.1%.
In the case of `CN(CC(=O)Nc1ccc(Cl)cc1)C(=O)c1sccc1-c1ccccc1`, the “hERG current change (%, negative = inhibition) at 10uM” value was -16.5%.
With `C=CCn1c(SCC(=O)N2CCOCC2)nc2ccccc2c1=O` the figure was -28.4%; with `CCc1ccc(C(C)NC(=O)Cc2ccc(F)cc2)cc1` (stereo not drawn), 3.7%.
Consider `Cc1cccc(Nc2nc(N3CCOCC3)nc(N3CCOCC3)n2)c1`, for which the “hERG current change (%, negative = inhibition) at 10uM” value is -13.1%.
Take `COc1cccc(Oc2nc(N)ncc2[N+](=O)[O-])c1`: the “hERG current change (%, negative = inhibition) at 10uM” value came to 22.1%.
With `O=C(c1ccccc1)N1CCN(c2ccc([N+](=O)[O-])c(N3CCOCC3)c2)CC1` the figure was -7.22%; with `Cc1nnc(SCC(=O)Nc2nc3c(s2)CC(C)CC3)s1` (stereo not drawn), -7.17%; with `Cc1nn(C)c(C(=O)N/N=C/c2ccc(-c3ccccc3)cc2)c1Cl`, 11.6%.
Next, `CCn1cc(C2=NC(C(C)C)CO2)c2ccccc21` (stereo not drawn): -3.97%; `c1csc(-c2ccc(N3CCOCC3)nn2)c1`: -13.9%.
On to `O=C(O)CONC(=O)c1cc(OCC(F)(F)F)ccc1OCC(F)(F)F`, for which the “hERG current change (%, negative = inhibition) at 10uM” value is reported as 12.5%.
Consider `CNC(=S)NNS(=O)(=O)c1ccc(OC)cc1OC`, for which the “hERG current change (%, negative = inhibition) at 10uM” value was determined as 19.5%.
Next, `C=CCn1c(-c2cccc(OC)c2)nc2nc3ccccc3nc21`: -2.04%; `Cc1ccc(C)c(C(=O)COC(=O)c2ccccc2N2C(=O)C3C4CCC(C4)C3C2=O)c1` (stereo not drawn): -2.6%; `C=CCOc1c(Br)cc(CNc2nccs2)cc1OC`: -19.5%.
Next, `COC(=O)c1ccccc1NC(=O)CS(=O)(=O)Cc1nc(-c2ccc(C)cc2)oc1C`: 13.5%.
Take `CCCCCOC(=O)NCC(O)c1ccccc1` (stereo not drawn): the “hERG current change (%, negative = inhibition) at 10uM” value is 7.39%.
Next, `Cc1cc([N+](=O)[O-])nn1CCCC(=O)NC1CCCCC1`: 0.172%; `O=C(c1ccc(CS(=O)Cc2cccc(Cl)c2)o1)N1CCN(C2CCCCC2)CC1` (stereo not drawn): -16.5%.
